The values below come from the supplement of paper PMC11417369.

± gives the standard deviation of the averaged measurements. Some of the results follow.

In this test the test system is PfAP2-I AP2 domain 3 (GST-tagged). Put plainly: gcPBM binding intensity (ln(normalized median fluorescence intensity)); higher = stronger DNA binding. The method in brief: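 The highest Masliner-normalised natural-log median intensity across replicate spots of either probe orientation is reported as binding intensity. GST-tagged P. falciparum DNA-binding domains expressed in E. coli were applied for 1 h to an Agilent 4 × 180k array of primer-extended double-stranded 36-bp intergenic genomic probes plus negative controls, and bound protein was detected with Alexa488 anti-GST antibody and scanned at 488 nm.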
Regarding “AAAGTTTTTACCAAGTGTACATATATATATATATAT [XGTACX_site5786]”, the “gcPBM binding intensity (ln)” value was found to be 9.35 ± 0.27. In the case of “TATTTTTTTTAGCGTACATGCAAAAAAAAAAAAAAA [TGCATGCA_site555]” it was 8.2 ± 0.51; in that of GTTTATTTATTTTATGTGCACATATAACAAAAAAAA, 10.36 ± 0.028; in that of “TTTTTTCTTTAATACTCAATATGATAAAAGTAACAC [XGTACX_negctrl_site163]”, 7.83 ± 0.39.

For the sequence “AAAAATAAAAAGAATTGTACATATAAATCATATACA [XGTACX_site6860]”, the “gcPBM binding intensity (ln)” value was determined as 7.33 ± 0.29. The value for “GACCCAATGAAAAGGTCACACATTTTTTCTTTTCGA [CACACA_site5074]” was 7.38 ± 0.76; that for “TAAAAATATATAAACAGTACATAAATTAAATAAATA [XGTACX_site6962]” was 7.54 ± 0.46. The value for “ATATAAACATGTTTGTGTACGTAATATGAAAAATAA [XGTACX_site8157]” was 8.38 ± 0.33; that for “GTATGTATAATATACACACTCACAAGCATTCAAATA [CACACA_site267]” was 7.63 ± 0.5; that for “AAATATTATACAAAAAAAAAAAAAAAAAAAATATAT [CACACA_negctrl_site52]” was 7.57 ± 0.5. The value for “ATTTTGTATATATTTTGTACATATTTTGTATATATT [XGTACX_site885]” was 7.73 ± 0.68. As for “TTGTTTTTAAGAAAAACACACACTCCTGTTATTTTA [CACACA_site9230]”, the “gcPBM binding intensity (ln)” value is 7.43 ± 0.65. In the case of “TTAGGACAAAAAAAAATAAAAATAAAATAAAATAAT [CACACA_negctrl_site1613]” it was 7.54 ± 0.64. In the case of “ATTTTTTTTTTTATAGTGGAACCACATTTGCCATTT [CACACA_negctrl_site1247]” it was 7.92 ± 0.63; in that of “TATTAAATGAAACAAACACACATAGCCTTTAAATAT [CACACA_site1560]”, 7.66 ± 0.58. In the case of “ATATATATATCATATTGTACATATTATTGTATAATC [XGTACX_site5020]” it was 8.85 ± 0.028. In the case of “AAATTATATATATTTACATGCAATATAATGAAATAA [TGCATGCA_site229]”, the “gcPBM binding intensity (ln)” value came to 7.66 ± 0.67. In the case of “ATAAAATAAAACAGAGCACACATTTTATTTACATTC [CACACA_site696]” it was 7.89 ± 0.41. For “TAAATTATAATAAATACACACAAATTATAATTCTAT [CACACA_site3942]”, the “gcPBM binding intensity (ln)” value was determined as 7.71 ± 0.42.

Regarding “CATTTTATAAAAAGCACACATATAGTTATATGCACA [CACACA_site3691]”, the “gcPBM binding intensity (ln)” value was found to be 10.7 ± 0.91. In the case of “TATATATATATACATTGTACATTATTGATTATAACA [XGTACX_site1678]” it was 9.26 ± 0.31. In the case of “TTTGAATCCTTATATACACACATTATATAATATTAT [CACACA_site4472]” it was 8.02 ± 0.5; in that of “TTTATTCTCCGACACACACACATATATTTATTTATA [CACACA_site7377]”, 8.14 ± 0.28. In the case of “AAATTAGAATTAGGAACACACATATTTATATTTATA [CACACA_site7450]” it was 7.46 ± 0.59; in that of “ATATATAAAAAATGTGGTACATTCATTTATTATACA [XGTACX_site3495]”, 7.75 ± 0.13; in that of “AATAAATAAATATATACACACATATATCTGTACATA [CACACA_site9034]”, 7.68 ± 0.52. “AGGAAAAAAAAAATGTGTACTTAAAAAAAAAAAATT [XGTACX_site1471]”: the “gcPBM binding intensity (ln)” value came out at 7.91 ± 0.47. On to “TTTTATCATATTTATTGTACACATAATATACATATC [XGTACX_site1145]”, for which the “gcPBM binding intensity (ln)” value worked out at 8.39 ± 0.45. The value for “CGTTTATATTTTAACTGTACTCAAAAAGTGCATTGT [XGTACX_site6072]” was 9.64 ± 0.38; that for “TTTTATATATTATATACACACATATATATATATATA [CACACA_site2999]” was 9.46 ± 0.53. In the case of “TGTATGTTTATTTATCGTACATATATATATATATAT [XGTACX_site7315]” it was 9.44 ± 0.64; in that of “ACATATTTCCAATAATGTACATACAAAATAAGAATG [XGTACX_site2659]”, 7.82 ± 0.58; in that of “TGTTCATTTATTTACTTACACACTTTATATATGTGG [CACACA_site1410]”, 7.79 ± 0.59. The value for “TAAAAGTAGATATATACACACATAAATATAGATGTA [CACACA_site6457]” was 7.32 ± 0.45. Take “ACAAAGTAAAATAATGCATGTAGGTATACATAATTA [TGCATGCA_site607]”: the “gcPBM binding intensity (ln)” value amounted to 7.71 ± 0.81. For the sequence “AATATTTTATATAAATGTACATTTATGAATAATATA [XGTACX_site8477]”, the “gcPBM binding intensity (ln)” value was 7.76 ± 0.31. As to “GTGCTAAAAGTATATGCACACACATATATATGCACA [CACACA_site8472]”, the “gcPBM binding intensity (ln)” value is 10.9 ± 0.55. As for “AATAAAGCAATAAATACACACATATATATATATATA [CACACA_site2934]”, the “gcPBM binding intensity (ln)” value was 9.11 ± 0.11.

For “TATATAAAAAATAGGTGGTCAACTTAAATATTTTAT [XGTACX_site4495]”, the “gcPBM binding intensity (ln)” value worked out at 7.83 ± 0.56. For “AGTTATGCATCTTAGGTGCTATGCCCAATTTATTTT [GTGCAC_site9977]”, the “gcPBM binding intensity (ln)” value was 8.49 ± 0.67. In the case of “AACTTACTCTTTACAAGTACGTAAAAGAAATAGAAA [XGTACX_site1782]” it was 7.68 ± 0.49; in that of “TTGCCTTAAAAAGGAACACACATGCTTTTTTTAGTT [CACACA_site938]”, 7.68 ± 0.67; in that of “AAAAAAAAAAAAAATGCACACATATATTTCCATATA [CACACA_site8416]”, 9.04 ± 0.19. In the case of “AAAAATGTGCACACGCGTACACACAAAAAAAGAAAA [XGTACX_site4097]” it was 9.79 ± 0.62. In the case of “AAAATATATCAAAATAGTACATAATTTTTTAAGAAT [XGTACX_site3515]” it was 7.67 ± 0.45.
